Test results taken from PubChem BioAssay AID360 (National Center for Advancing Translational Sciences (NCATS), 2006).
Out of some 48,000 compounds screened, about 550 (1.1%) were called active. Another 4% or so got no clear call; they are omitted. Rule as the data show it: active = potency below about 15 µM; inconclusive = mostly about 16 µM to 33 µM; inactive = weaker than that. This is one part of the list.

Biological target: Lysosomal acid glucosylceramidase (Homo sapiens) (UniProt P04062)
Test: Glucocerebrosidase;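 also: the screen sought inhibitors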
Details: purified enzyme, resorufin glucoside fluorescence (screen aimed at inhibitors), 20 min
Summary of the method: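 Normal human glucocerebrosidase (0.2 nM final) was assayed with resorufin β-D-glucopyranoside (30 uM final) in 50mM citric acid/KH2PO4, 10mM sodium taurocholate, 0.01% tween-20, pH 5.9. Compounds were titrated; fluorescence (Ex 548, Em 600) read after 20 min at RT.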
Potency is read from the fitted curve at half-maximal effect.

Sequence of UniProt P04062 (P04062 whole entry, looked up): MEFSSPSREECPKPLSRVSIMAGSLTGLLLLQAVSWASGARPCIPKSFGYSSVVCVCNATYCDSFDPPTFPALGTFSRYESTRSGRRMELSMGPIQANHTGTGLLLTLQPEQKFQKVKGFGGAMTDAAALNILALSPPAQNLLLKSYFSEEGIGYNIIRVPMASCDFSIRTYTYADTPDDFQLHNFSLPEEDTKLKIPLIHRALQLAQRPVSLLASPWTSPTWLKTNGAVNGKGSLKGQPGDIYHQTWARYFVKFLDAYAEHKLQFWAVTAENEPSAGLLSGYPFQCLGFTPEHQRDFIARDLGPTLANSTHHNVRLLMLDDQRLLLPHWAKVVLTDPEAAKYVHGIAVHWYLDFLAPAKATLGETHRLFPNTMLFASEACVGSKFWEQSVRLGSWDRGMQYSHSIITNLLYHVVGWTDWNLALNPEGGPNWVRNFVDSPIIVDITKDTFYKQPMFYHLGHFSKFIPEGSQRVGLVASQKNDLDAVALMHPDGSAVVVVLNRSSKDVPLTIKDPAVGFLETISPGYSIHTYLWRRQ

Potency, inactive:
COc1ccccc1C(=O)Nc1ccc(S(=O)(=O)N2CCCC2)cc1 > 76.9 µM
CC(C)(C)NC(=O)Cn1c(SCC(=O)NC2CCCCC2)nc2ccccc21 > 76.9 µM
CC1=C(C(=O)OCc2ccccc2)C(c2cccnc2)n2ncnc2N1 (stereo unspecified) > 76.9 µM
Cn1c2ccccc2c2c(C(=O)N3CCN(c4ccccc4)CC3)cn(C3CCCC3)c(=O)c21 > 76.9 µM
CCOC(=O)c1sc(NC(=O)C(CC)Sc2nnc3c4ccccc4n(CC)c3n2)nc1C (stereo unspecified) > 76.9 µM
Cc1ccc2cc(C#N)c(N3CCCN(C(=O)C4CCCO4)CC3)nc2c1 (stereo unspecified) > 76.9 µM
Cc1nn(-c2ccccc2C(=O)O)c(=O)c2ccccc12 > 76.9 µM
CC(C)(C)n1ncc2c(=O)n(CC(=O)NCc3ccco3)cnc21 > 76.9 µM
O=S(=O)(/N=C(\c1ccccc1)N1CCOCC1)c1cccs1 > 76.9 µM
CCCOC(=O)C1[C@H]2C(=O)N(CC3CCCO3)C[C@]23C=C[C@H]1O3 (stereo partly specified) > 76.9 µM
O=C(Nc1ccccc1N1CCCC1)c1ccc(Br)o1 > 76.9 µM
COc1ccc(C)cc1NC(=O)CN(Cc1nnc(-c2ccc(Cl)cc2)o1)C1CCCC1 > 76.9 µM
CC1CC(c2ccccc2)n2nc(NC(=O)CCc3ccccc3)nc2N1 (stereo unspecified) > 76.9 µM
CCOC(=O)CC1Sc2ccccc2NC1=O (stereo unspecified) > 76.9 µM
CCOCC(=O)N1CCN(c2ccc(F)cc2)CC1 > 76.9 µM
CCC(C)N=C1SCC(C)(/C=N/O)S1 (stereo unspecified) > 76.9 µM
O=C(Nc1ccc2oc(=O)ccc2c1)c1ccco1 > 76.9 µM
O=C(NCc1ccc2c(c1)OCO2)c1ccc2c(=O)n(C3CCCC3)c(=O)[nH]c2c1 > 76.9 µM
Cc1noc(C)c1C(=O)NCCC1=CCCCC1 > 76.9 µM
COC(=O)c1ccc(C(=O)OC)c(NC(=O)CSc2nnc(-c3ccccc3Cl)o2)c1 > 76.9 µM
CCCc1cc(=O)[nH]c(/N=C(/NC(=O)C(C)N2C(=O)c3ccccc3C2=O)Nc2ccccc2)n1 (stereo unspecified) > 76.9 µM
CCN(CC)CCNC(=O)C1c2ccccc2C(=O)N(C)C1c1cn(C)c2ccccc12 (stereo unspecified) > 76.9 µM
CC(=O)OC(C(=O)NC1CCCCC1)c1ccncc1 (stereo unspecified) > 76.9 µM
COC(=O)CNC(=O)c1cn(CC(C)C)c(=O)c2cc(OC)c(OC)cc12 > 76.9 µM
c1ccc(Cn2c(SCc3cn4cccnc4n3)nnc2-c2ccco2)cc1 > 76.9 µM
CN(c1ccc(C(=O)NCCC2=CCCCC2)cc1)S(C)(=O)=O > 76.9 µM
CCN(CC)S(=O)(=O)c1ccc2c(c1)nc(SCc1nc3ccsc3c(=O)[nH]1)n2CC > 76.9 µM
O=C(NCc1ccco1)c1cc2ccccc2c(=O)o1 > 76.9 µM
CC(NC(=O)C1CCCCC1)c1ccc2c(c1)OCCO2 (stereo unspecified) > 76.9 µM
CCn1c(SCC(=O)c2cc(C)n(-c3ccc(C(=O)OC)cc3)c2C)nnc1-c1cccnc1 > 76.9 µM
O=C(CSc1ncccc1-c1nc2ccccc2[nH]1)NC1CC1 > 76.9 µM
CCOC(=O)c1nnn(CC(=O)Nc2ccccc2OC)c1C(=O)OCC > 76.9 µM
O=C(Nc1ccc(Cl)cc1)C1CC=CCC1C(=O)OCC(F)(F)C(F)F (stereo unspecified) > 76.9 µM
CC(C)OP(=O)(c1ccc(N(C)C)cc1)C(O)c1ccncc1 (stereo unspecified) > 76.9 µM
COc1cccc(C(=O)NC(C)C(c2cccs2)N2CCN(C)CC2)c1 (stereo unspecified) > 76.9 µM
CCOc1cc(C)c(C(C)C)cc1S(=O)(=O)NCc1ccccn1 > 76.9 µM
Oc1ccccc1C1Nc2cccc3cccc(c23)N1 > 76.9 µM
CCCCCNc1c(C(=O)OCC)c(=O)[nH]c2ccccc12 > 76.9 µM
N#CC1=C(N)SC(N)=C(C#N)C1CCC1CCCCC1
Cc1nnc(NC2=NCCC2)o1 > 76.9 µM
Cc1ccc(Nc2ncc3c(n2)CC(c2ccco2)CC3=O)c(C)c1 (stereo unspecified) > 76.9 µM
COc1cc(CN2CCC(C(=O)N3CCN(c4ccccc4F)CC3)CC2)cc(OC)c1OC > 76.9 µM
CS(=O)(=O)N(CC(=O)NCc1ccc2c(c1)OCO2)c1ccccc1 > 76.9 µM
O=C1CN(C(=O)COC(=O)COc2ccc3c(c2)CCC3)c2ccccc2N1 > 76.9 µM
CCc1nc2ccccc2n(CCOCCn2c(=O)c(CC)nc3ccccc32)c1=O > 76.9 µM
C=CCN1C(=O)CN=C1Nc1ccc(OC)cc1OC > 76.9 µM
O=C(O)CNS(=O)(=O)c1ccc(Br)s1 > 76.9 µM
CCOC(=O)C1C(=O)NC(N2CCCCC2)=NC1C(C)C (stereo unspecified) > 76.9 µM
CC1CCCCN1C(=O)COc1ccc(NC(=O)c2ccco2)cc1 (stereo unspecified) > 76.9 µM
Cc1cc(C)n(C/C=C/Cn2nc(C)cc2C)n1 > 76.9 µM
COc1ccccc1-c1nnc(NC(=O)OCC(C)C)s1 > 76.9 µM
CC1(C)CC(=O)C(C=NCCN2CCNC2=O)=C(O)C1 > 76.9 µM
COc1cc(CN(C(=O)c2ccco2)c2ccc(C)cc2)ccc1O > 76.9 µM
CCCOc1c(OC)cccc1C1CC(=O)Nc2cc3c(cc21)OCO3 (stereo unspecified) > 76.9 µM
CC(C)Cn1c(SCC#N)nc2ccccc2c1=O > 76.9 µM
COC(=O)c1ccccc1NC(=O)COC(=O)c1cccnc1 > 76.9 µM
COc1cccc(N2CC(O)=C(c3nc4ccccc4c(=O)[nH]3)C2=N)c1 > 76.9 µM
COc1nc(Nc2cccc(C(F)(F)F)c2)nc(OC)n1 > 76.9 µM
CCN1CCN(Cc2nc3c(c(=O)n(C)c(=O)n3C)n2Cc2cccc3ccccc23)CC1 > 76.9 µM
CC1(c2ccc(Cl)cc2Cl)OCC(Cn2ccnc2)O1 (stereo unspecified) > 76.9 µM
CCSc1nnc(NC(=O)Cc2ccc(OC)c(S(=O)(=O)N3CCOCC3)c2)s1 > 76.9 µM
COc1ccccc1C(=O)N1CCN(C2CCN(Cc3ccccc3)CC2)CC1 > 76.9 µM
C[C@H](NC(=O)OC(C)(C)C)C(=O)NCC1CCC(C(=O)O)CC1 (stereo partly specified) > 76.9 µM
O=C(CN1C(=O)NC2(CCCc3ccccc32)C1=O)N1CCc2ccccc2C1 (stereo unspecified) > 76.9 µM
Cc1cc(C)nc(N2CCN(c3ncnc4c3oc3ccccc34)CC2)n1 > 76.9 µM
O=C(Nc1ccccc1N1CCCCC1)c1ccccc1F > 76.9 µM
Cc1ccc(NC(=O)COC(=O)C2=COCCO2)cc1 > 76.9 µM
CC(=O)NC12CC3CC(C1)CC(C(=O)Nc1nccs1)(C3)C2 > 76.9 µM
O=C(CN1C(=O)CCC1=O)Nc1ccc(Br)cc1 > 76.9 µM
CCC(=O)Nc1cnc(NC(=O)c2cccc(F)c2)cc1C > 76.9 µM
CCOC(=O)CSc1ncnc2c1cnn2-c1ccccc1 > 76.9 µM
CCOC(=O)c1ccccc1NC(=O)COC(=O)C1=COCCO1 > 76.9 µM
Cc1ncc(CC(=O)n2cc(C(=O)c3cc(Cl)ccc3O)cn2)s1 > 76.9 µM
c1ccc(-c2nnc3sc(-c4cc5ccccc5o4)nn23)cc1 > 76.9 µM
CCOC(=O)N1CCC(n2c(SCC(=O)NCCC3=CCCCC3)nc3ccccc3c2=O)CC1 > 76.9 µM
CC(=O)c1cccc(NC(=O)N2CCCC2C(=O)NCCC(C)C)c1 (stereo unspecified) > 76.9 µM
CCn1nc(C(=O)OCC(=O)c2ccc3c(c2)OCCO3)c2ccccc2c1=O > 76.9 µM
CCOc1ccccc1CNC(=O)C1CCN(c2nc3ccccc3o2)CC1 > 76.9 µM
OCCN1CN=C(Nc2nc3ccccc3s2)NC1 > 76.9 µM
Cc1ccc(NC(=O)CCNS(=O)(=O)c2cccc3nonc23)cc1 > 76.9 µM
O=C(NCc1ccc2c(c1)OCO2)C1CCN(Cc2cnn(-c3ccccc3)c2-n2cccc2)CC1 > 76.9 µM
CCc1nnc(SCC(=O)Nc2ccc(C(C)=O)cc2)nc1CC > 76.9 µM
Cn1c(/C(C#N)=C(\O)COc2ccc3ccccc3c2)nc2ccccc21 > 76.9 µM
CC(C)c1ccc(NC(=O)COC(=O)C2=COCCO2)cc1 > 76.9 µM
COc1cc(S(=O)(=O)N2CCOCC2)ccc1NC(=O)COC(=O)c1ccccn1 > 76.9 µM
Cc1ccc(S(=O)(=O)N2CCCCC2C(=O)NCc2ccco2)cc1 (stereo unspecified) > 76.9 µM
CC(=O)NC(CCS(C)(=O)=O)C(=O)Nc1c(F)cccc1F (stereo unspecified) > 76.9 µM
Cc1cc(C)n2cc(CSc3nnc(N)s3)nc2n1 > 76.9 µM
CC(=O)c1c(C)nc(-c2ccc(Cl)cc2Cl)n1O > 76.9 µM
COC(=O)COc1ccc(S(=O)(=O)N2CCOCC2)cc1 > 76.9 µM
CCC(c1nnnn1Cc1ccc2c(c1)OCO2)N1CCN(c2ccccc2)CC1 (stereo unspecified) > 76.9 µM
